# Laboratory results: the supplement of paper PMC8728848
# The other results are listed elsewhere or left out.
# B1: Epa1 (Candida glabrata) (protein)
# chain: MGSSHHHHHHSSGLVPRGSHMTSSNDISLASKDPTTFPLGCSPDITTPKKGLSMELYSYDFRKKGSYPCWDAAYLDPNYPRTGYKSHRLLAKVDGVTGNINFYYHATKGCTPQLGHLPASYNYPKPLTMTNFTMLLYGYFRPKVTGFHTFTISADDLLFVNFGAGNAFDCCRRDSSADHFGNYQAYAIWGSKTAKDELTVHLDAGVYYPIRLFYNNREYDGALSFTFKTESNENTVSDFSEYFFSLDDTEEGCPGLISYD
# Assays:
# Experiment in all cases: glycan array binding signal (z-score within array); higher = stronger binding
# Conditions in all cases: glycan notation: IUPAC condensed, linker removed
# [1] = target: Neu5Ac(a2-6)GlcNAc(b1-4)GlcNAc(b1-4)GlcNAc
# Summary of the method: (§1)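 The Consortium for Functional Glycomics database supplied 3228 glycan arrays, of which those lacking an available protein sequence were dropped. The binding signal, a within-array Z-score, was averaged across arrays of the same protein sequence and across linkers. Negative scores can be read as non-binding.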
# Neu5Ac(a2-8)Neu5Ac = target: Neu5Ac(a2-8)Neu5Ac
# Summary of the method: as §1
# [2] = target: Neu5Ac(a2-8)Neu5Ac(a2-3)Gal(b1-3)GalNAc(b1-4)[Neu5Ac(a2-3)]Gal(b1-4)Glc
# Summary of the method: as §1
# [3] = target: Neu5Ac(a2-8)Neu5Ac(a2-3)Gal(b1-3)GalNAc(b1-4)[Neu5Ac(a2-8)Neu5Ac(a2-3)]Gal(b1-4)Glc
# Summary of the method: as §1
# [4] = target: Neu5Ac(a2-8)Neu5Ac(a2-3)Gal(b1-4)Glc
# Summary of the method: as §1
# [5] = target: Neu5Ac(a2-8)Neu5Ac(a2-3)Gal(b1-4)GlcNAc
# Summary of the method: as §1
# [6] = target: Neu5Ac(a2-8)Neu5Ac(a2-3)[Gal(b1-3)GalNAc(b1-4)]Gal(b1-4)Glc
# Summary of the method: as §1
# [7] = target: Neu5Ac(a2-8)Neu5Ac(a2-3)[GalNAc(b1-4)]Gal(b1-4)Glc
# Summary of the method: as §1
# [8] = target: Neu5Ac(a2-8)Neu5Ac(a2-8)Neu5Ac
# Summary of the method: as §1
# [9] = target: Neu5Ac(a2-8)Neu5Ac(a2-8)Neu5Ac(a2-3)Gal(b1-4)Glc
# Summary of the method: as §1
# [10] = target: Neu5Ac(a2-8)Neu5Ac(a2-8)Neu5Ac(a2-3)[Gal(b1-3)GalNAc(b1-4)]Gal(b1-4)Glc
# Summary of the method: as §1
# [11] = target: Neu5Ac(a2-8)Neu5Ac(a2-8)Neu5Ac(a2-3)[GalNAc(b1-4)]Gal(b1-4)Glc
# Summary of the method: as §1
# [12] = target: Neu5Ac(a2-8)Neu5Ac(a2-8)Neu5Ac(a2-8)Neu5Ac(a2-3)[GalNAc(b1-4)]Gal(b1-4)Glc
# Summary of the method: as §1
# [13] = target: Neu5Ac(a2-8)Neu5Gc(a2-3)Gal(b1-4)GlcNAc
# Summary of the method: as §1
# [14] = target: Neu5Ac(b2-6)Gal(b1-4)GlcNAc
# Summary of the method: as §1
# Neu5Ac(b2-6)GalNAc = target: Neu5Ac(b2-6)GalNAc
# Summary of the method: as §1
# [15] = target: Neu5Ac9Ac(a2-3)Gal(b1-3)GlcNAc
# Summary of the method: as §1
# [16] = target: Neu5Ac9Ac(a2-3)Gal(b1-4)GlcNAc
# Summary of the method: as §1
# [17] = target: Neu5Ac9Ac(a2-6)Gal(b1-4)GlcNAc
# Summary of the method: as §1
# [18] = target: Neu5Gc(a2-3)Gal(b1-3)GlcNAc
# Summary of the method: as §1
# [19] = target: Neu5Gc(a2-3)Gal(b1-3)[Fuc(a1-4)]GlcNAc
# Summary of the method: as §1
# Neu5Gc(a2-3)Gal(b1-4)Glc = target: Neu5Gc(a2-3)Gal(b1-4)Glc
# Summary of the method: as §1
# [20] = target: Neu5Gc(a2-3)Gal(b1-4)GlcNAc
# Summary of the method: as §1
# [21] = target: Neu5Gc(a2-3)Gal(b1-4)GlcNAc(b1-3)Gal(b1-4)GlcNAc(b1-2)Man(a1-3)[Neu5Gc(a2-3)Gal(b1-4)GlcNAc(b1-3)Gal(b1-4)GlcNAc(b1-2)Man(a1-6)]Man(b1-4)GlcNAc(b1-4)GlcNAc
# Summary of the method: as §1
# [22] = target: Neu5Gc(a2-3)Gal(b1-4)[Fuc(a1-3)]GlcNAc
# Summary of the method: as §1
# [23] = target: Neu5Gc(a2-6)Gal(b1-4)GlcNAc
# Summary of the method: as §1
# Neu5Gc(a2-6)GalNAc = target: Neu5Gc(a2-6)GalNAc
# Summary of the method: as §1
# [24] = target: Neu5Gc(a2-8)Neu5Ac(a2-3)Gal(b1-4)GlcNAc
# Summary of the method: as §1
# [25] = target: Neu5Gc(a2-8)Neu5Gc(a2-3)Gal(b1-4)GlcNAc
# Summary of the method: as §1
# [26] = target: Neu5Gc(a2-8)Neu5Gc(a2-3)Gal(b1-4)GlcNAc(b1-3)Gal(b1-4)GlcNAc
# Summary of the method: as §1
# [27] = target: Neu5Gc(a2-8)Neu5Gc(a2-6)Gal(b1-4)GlcNAc
# Summary of the method: as §1
# [28] = target: Neu5Gc(b2-6)Gal(b1-4)GlcNAc
# Summary of the method: as §1
binder,measurement,setting,value
B1,glycan array binding signal (z-score),[1],-0.36
same,glycan array binding signal (z-score),Neu5Ac(a2-8)Neu5Ac,-0.318
same,glycan array binding signal (z-score),[2],-0.199
same,glycan array binding signal (z-score),[3],0.194
same,glycan array binding signal (z-score),[4],-0.337
same,glycan array binding signal (z-score),[5],-0.339
same,glycan array binding signal (z-score),[6],1.34
same,glycan array binding signal (z-score),[7],-0.341
same,glycan array binding signal (z-score),[8],-0.317
same,glycan array binding signal (z-score),[9],-0.426
same,glycan array binding signal (z-score),[10],-0.265
same,glycan array binding signal (z-score),[11],-0.306
same,glycan array binding signal (z-score),[12],-0.301
same,glycan array binding signal (z-score),[13],-0.332
same,glycan array binding signal (z-score),[14],-0.248
same,glycan array binding signal (z-score),Neu5Ac(b2-6)GalNAc,-0.312
same,glycan array binding signal (z-score),[15],-0.31
same,glycan array binding signal (z-score),[16],-0.34
same,glycan array binding signal (z-score),[17],-0.291
same,glycan array binding signal (z-score),[18],-0.306
same,glycan array binding signal (z-score),[19],-0.288
same,glycan array binding signal (z-score),Neu5Gc(a2-3)Gal(b1-4)Glc,-0.284
same,glycan array binding signal (z-score),[20],-0.309
same,glycan array binding signal (z-score),[21],-0.359
same,glycan array binding signal (z-score),[22],-0.276
same,glycan array binding signal (z-score),[23],-0.293
same,glycan array binding signal (z-score),Neu5Gc(a2-6)GalNAc,-0.311
same,glycan array binding signal (z-score),[24],-0.318
same,glycan array binding signal (z-score),[25],-0.316
same,glycan array binding signal (z-score),[26],-0.319
same,glycan array binding signal (z-score),[27],-0.309
same,glycan array binding signal (z-score),[28],-0.231
